Experimental data: article PMC4336329 (PLoS ONE, 2015)
About 2,200 (0.71%) of roughly 310,000 compounds showed an effect of 50% or more. The effect is printed as a negative number. The list shows a part of the results.

Target: human ether-à-go-go-related gene (hERG) potassium channel (human, UniProt Q12809)
Assay: primary screen, population patch clamp on CHO cells stably expressing hERG

human ether-à-go-go-related gene (hERG) potassium channel, sequence (Q12809 whole entry, looked up): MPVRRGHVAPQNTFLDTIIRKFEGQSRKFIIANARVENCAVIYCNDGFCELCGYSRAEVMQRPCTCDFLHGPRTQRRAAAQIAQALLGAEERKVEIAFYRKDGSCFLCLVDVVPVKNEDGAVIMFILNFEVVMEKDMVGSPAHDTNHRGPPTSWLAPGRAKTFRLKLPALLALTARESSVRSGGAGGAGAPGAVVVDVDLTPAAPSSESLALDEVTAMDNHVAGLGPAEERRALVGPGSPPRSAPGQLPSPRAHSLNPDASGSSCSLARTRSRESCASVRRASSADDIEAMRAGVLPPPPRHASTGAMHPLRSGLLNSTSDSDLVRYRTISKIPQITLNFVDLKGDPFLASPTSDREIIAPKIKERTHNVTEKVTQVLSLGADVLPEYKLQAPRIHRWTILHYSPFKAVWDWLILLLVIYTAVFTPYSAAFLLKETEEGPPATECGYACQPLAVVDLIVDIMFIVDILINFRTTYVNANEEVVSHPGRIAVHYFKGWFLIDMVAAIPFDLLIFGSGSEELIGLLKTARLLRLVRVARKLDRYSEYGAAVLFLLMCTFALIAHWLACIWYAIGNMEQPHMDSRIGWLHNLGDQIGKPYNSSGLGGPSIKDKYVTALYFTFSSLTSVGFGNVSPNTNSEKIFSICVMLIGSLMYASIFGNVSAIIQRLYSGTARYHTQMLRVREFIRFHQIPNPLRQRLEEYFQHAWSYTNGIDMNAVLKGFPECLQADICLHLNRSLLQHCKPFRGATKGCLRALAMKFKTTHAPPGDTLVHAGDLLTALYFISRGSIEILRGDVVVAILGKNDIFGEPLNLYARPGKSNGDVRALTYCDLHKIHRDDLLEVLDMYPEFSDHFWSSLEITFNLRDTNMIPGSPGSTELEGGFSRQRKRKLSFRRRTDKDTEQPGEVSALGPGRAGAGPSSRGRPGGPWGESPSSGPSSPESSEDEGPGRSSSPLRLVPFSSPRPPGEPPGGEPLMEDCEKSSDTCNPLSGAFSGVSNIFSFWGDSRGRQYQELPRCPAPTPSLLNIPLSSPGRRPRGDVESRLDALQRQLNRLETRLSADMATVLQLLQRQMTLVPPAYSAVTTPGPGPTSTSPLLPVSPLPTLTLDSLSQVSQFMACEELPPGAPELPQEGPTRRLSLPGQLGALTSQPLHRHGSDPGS

Row | SMILES | hERG current change (%, negative = inhibition) at 1uM [%]
1 | COc1ccc(NC(=S)N(CCC(C)C)C2CCN(C(C)C)CC2)cc1Cl | -17
2 | CC1CCC/C(=N/Nc2ccc([N+](=O)[O-])cc2[N+](=O)[O-])C1 (stereo not drawn) | 6.43
3 | O=C(c1ccccc1)C1CCN(C(=O)Nc2ccccc2)CC1 | 9.03
4 | Cc1[nH]nc(N)c1N=Nc1ccc(Br)cc1 | 13.6
5 | O=C(N[C@@H](Cc1ccccc1)C(=O)OCc1ccccc1)c1nc[nH]c1C(=O)N1CCN(c2ccccc2)CC1 | 8.19
6 | O=S(=O)(/C=C/c1ccccc1)n1cnc2ccccc21 | 12.1
7 | CCOC(=O)CCNC(=O)Nc1ccc2nc(C)n(Cc3ccccc3Cl)c(=O)c2c1 | 8.49
8 | O=C(CN1C(=O)c2ccccc2C1=O)c1ccccc1 | 10.2
9 | Cc1[nH]c2ccc(C(=O)NCCCN3CCCC3)cc2c1C | 15.6
10 | COc1ccccc1CNC(=O)c1ccc(OC(F)F)c(OC)c1 | 2.84
11 | CCCS(=O)(=O)N1CCCC(C(=O)Oc2ccc(C)c(C)c2)C1 (stereo not drawn) | 13.3
12 | CCOC(=O)C1CCCN(c2c(N3CCN(C)CC3)c(=O)c2=O)C1 (stereo not drawn) | 10.2
13 | CCN(CC(=O)Nc1cc(Cl)ccc1C)C(=O)C1CC1 | 9.06
14 | CCOC(=O)c1[nH]c(C)c(C(=O)N2CCN(c3ccc(F)cc3)CC2)c1C | 1.16
15 | Cc1cc(C)nc(SCC(=O)NC2=NN=C(c3ccc(Br)cc3)CS2)n1 | -0.676
16 | COc1ccccc1/C=C/C=N/NC(=O)c1cccs1 | 16.1
17 | CC1=C(C#N)C(=O)NC(C)(C)C1 | 7.75
18 | CCCCC(=O)NNC(=S)NC(=O)c1ccc([N+](=O)[O-])cc1 | 17.6
19 | CCc1cc2c(=O)c(Oc3ccccc3F)c(C)oc2c(CN(C)C)c1O | 11.8
20 | NNC(=O)c1ccc([N+](=O)[O-])c(CS(=O)(=O)c2ccc(Cl)cc2)c1 | -0.315
21 | CCc1ccc(S(=O)(=O)N/N=C(/C)c2ccncc2)cc1 | -12.2
22 | CC(=O)Nc1ccc(S(=O)(=O)N2CCN=C2SCc2cccc(C)c2)cc1 | 2.58

Row | SMILES | hERG current change (%, negative = inhibition) at 1uM [%]
23 | COCc1cc(C)c2c(N)c(C#N)sc2n1 | -1.84
24 | CCCOP(=O)(c1ccc(N(C)C)cc1)C(O)c1ccc(Br)cc1 (stereo not drawn) | 11.9
25 | COc1ccc(N2CCN(C3CCCN(Cc4cccc(OC)c4)C3)CC2)cc1 (stereo not drawn) | -27.1
26 | CC(C)Oc1ccc(C(=O)N2CCCC2C(=O)O)cc1 (stereo not drawn) | 15
27 | CCC(=O)N1CCN(c2ccc(NC(=O)c3ccc(N4CCCC4)c([N+](=O)[O-])c3)cc2)CC1 | 4.57
28 | COc1ccc(-c2csc(NC(=S)NC(=O)/C=C/c3ccccc3)n2)cc1Br | 19.1
29 | Cc1cc2c(nn1)CCc1c-2no[n+]1[O-] | 21.4
30 | CCOc1ccc(CCNC(=O)C2CCN(S(=O)(=O)N3CCCCC3)CC2)cc1OCC | 2.07
31 | COc1cccc(-c2ncc3ccccc3c2COC(=O)c2ccc(C(C)(C)C)cc2)c1 | 9.32
32 | O=C(c1cc(-c2ccc(Cl)c(Cl)c2)on1)N1CCCCC1 | -17
33 | Cc1csc(NC(=O)c2ccc(S(C)(=O)=O)cc2)n1 | -0.494
34 | Cc1ccccc1-n1c(Cn2c(=O)sc3ccccc32)nnc1SCC(=O)NCC1CCCO1 (stereo not drawn) | 4.61
35 | COc1ccc(N(C)C(=O)Cc2c(C(=O)O)[nH]c3ccccc23)c(OC)c1 | 10.9
36 | O=C(CSc1ccc(Cl)cc1)Nc1ccc(NC(=O)c2ccco2)cc1 | 6.86
37 | COc1cccc(C(=O)Nc2ccc3c(C)cc(=O)oc3c2)c1 | 15.5
38 | COCCNC(=O)c1cccc(OC2CCN(Cc3cccc(SC)c3)CC2)c1 | 4.6
39 | Cn1c(NNC(=O)c2c(F)cccc2F)cc(=O)n(C)c1=O | -4.74
40 | COc1ccccc1N1CCN(Cc2ccccc2Cl)CC1 | -0.135
41 | Oc1ccc2ccccc2c1C=Nc1ccccc1Br | 11.4
42 | Cc1[nH]nc2c1C(CC(C)C)C(C#N)=C(N)O2 (stereo not drawn) | 16.2
43 | O=C1N=C([O-])CN1/N=C/c1ccc(-c2ccc([N+](=O)[O-])cc2)o1.[Na+] | 5.23
44 | O=C1C(=O)N(c2ccccn2)C(c2ccc(Br)cc2)/C1=C(/O)c1ccc(Br)cc1 (stereo not drawn) | 6.76

Row | SMILES | hERG current change (%, negative = inhibition) at 1uM [%]
45 | CC(O)CNC(=O)C1CCN(Cc2ccc(OCc3ccccc3)cc2)CC1.O=C(O)C(=O)O (stereo not drawn) | -10.4
46 | O=C(OCc1nc2ccccc2s1)c1ccco1 | 2.24
47 | COCCNC(=O)c1onc(CSc2cccc(Cl)c2)c1C(=O)O | 11.7
48 | Cc1ccc2c(c1)C(c1ccccc1)N(C(=O)c1c(F)cccc1Cl)CC(=O)N2 (stereo not drawn) | 10.4
49 | CCC(C)[C@H](NC(=O)C1CCN(C(=O)[C@H](Cc2ccccc2)NC(=O)OC(C)(C)C)CC1)C(=O)O (stereo partly drawn) | 5.8
50 | Clc1ccc(-c2ccnc(Oc3cc(Cl)ccc3Cl)n2)cc1 | 14.7
51 | COc1ccc(NC(=O)CN2C(=O)C(C)Oc3ccccc32)cc1 (stereo not drawn) | 4.53
52 | NC(=O)CCS(=O)(=O)CCN1CCCCC1 | 15.9
53 | Cc1ccc(S(=O)(=O)/N=C2/C=C(C3C(=O)CC(C)(C)CC3=O)C(=O)c3ccccc32)cc1 | 3.31
54 | O=c1c2ccccc2cnn1-c1ccc(Cl)cc1 | 7.98
55 | CC(C)(C)c1ccc2c(c1)OC(C(=O)N/N=C/c1ccc([N+](=O)[O-])o1)CO2 (stereo not drawn) | 2.74
56 | CC(=O)O[C@H]1CC(C)(C)C(=C=C/C(C)=C/C=C/C(C)=C/C=C/C=C(C)/C=C/C=C(\C)C(=O)C[C@@]23O[C@]2(C)C[C@@H](O)CC3(C)C)[C@](C)(O)C1 | 14.8
57 | C=CCNC(=O)c1onc(CSc2cccc(OC)c2)c1C(=O)O | 18.7
58 | COc1ccc(NC(=O)CSc2nnc(NC(C)=O)s2)c([N+](=O)[O-])c1 | 12.9
59 | N#CC1=C(N)Oc2cc(N)ccc2C1c1cccc(F)c1 (stereo not drawn) | 0.989
60 | O=C(CSc1nc2ccccc2o1)Nc1ccc(N2CCOCC2)c(Cl)c1 | 4.7
61 | CC1CN(C(=O)c2ccccc2)OC(c2ccc3c(c2)OCO3)O1 (stereo not drawn) | 7.74
62 | O=C(CN1C(=O)c2ccccc2C1=O)Nc1cc([N+](=O)[O-])ccc1O | 13.9
63 | O=C1C=C(c2cccc(CO)c2)C[C@@H](c2ccc3c(c2)OCO3)C1 | 5.51
64 | COc1cc(-c2nnc(COC(=O)CSc3cc(C)c4ccccc4n3)o2)cc(OC)c1OC | 14.9
65 | Cl.Cn1nnnc1SCCNCc1ccccc1OCc1ccccc1Cl | 5.48
66 | Cc1ccccc1N/N=C1\CCCNC1=O | 6.51

Row | SMILES | hERG current change (%, negative = inhibition) at 1uM [%]
67 | COc1ccccc1OCCn1c(C(C)O)nc2ccccc21 (stereo not drawn) | 11.3
68 | CCOc1ccc2[nH]c(=O)c(C(c3nnnn3C3CCCCC3)N3CCN(C)CC3)cc2c1 (stereo not drawn) | -14.4
69 | CCOc1ccc2[nH]c(S(=O)(=O)CC)nc2c1Cl | 15.9
70 | CCOc1ccc(N(C(C)C(=O)NC2CCCCCC2)S(C)(=O)=O)cc1 (stereo not drawn) | -2.91
71 | C=C(C)Cn1c(SCC(=O)N/N=C/c2ccccc2)nc2ccccc2c1=O | 11
72 | CC(=O)c1ccc(N(C(=O)c2ccco2)C(C(=O)NC2CCCC2)c2ccc(N3CCOCC3)cc2)cc1 (stereo not drawn) | 13.1
73 | Cc1c(CCC(=O)N[C@@H](C)C(=O)O)c(=O)oc2cc3occ(-c4ccccc4)c3cc12 | -0.947
74 | Cc1ccc2[nH]c(=O)c(CN(CCCN3CCOCC3)C(=O)NC3CCCCC3)cc2c1 | -4.37
75 | Cc1cc([N+](=O)[O-])ccc1NC(=O)c1cncc(Br)c1 | 4
76 | COc1ccc(/C=C(/C#N)C(=O)Nc2cc(C)ccc2C)cc1C(=O)O | 3.45
77 | Cc1cc(NC(=O)c2ccc(C)o2)no1 | 14.8
78 | O=C(COC(=O)c1cccc([N+](=O)[O-])c1)Nc1ccc(Cl)cn1 | 9.13
79 | CC(C)(C)OC(=O)N1CCC(CNC(=O)c2ccc(F)cc2F)CC1 | 1.01
80 | Cc1nc2ccc(NC(=O)CSc3nnc(C)s3)cc2[nH]1 | 9.89
81 | O=C(CN1CCCC1)Nc1ccc(OCc2ccccc2)cc1 | 8
82 | CCOC(=O)c1cc(Br)c(=O)n2ccccc12 | 6.25
83 | CC(C)C[C@@H](C(=O)NCc1ccco1)N1C(=O)N2CCc3c([nH]c4ccccc34)[C@@]2(C)C1=O | 12.5
84 | COc1cc(OC)cc(C(=O)N[C@H](C(=O)Nc2nc(-c3ccc(OC)c(OC)c3)cs2)C(C)C)c1 | 8.11
85 | CCO[C@@H]1OC(C(N)=O)=C[C@H](C2CCCCC2)[C@H]1CCCO | 6.3
86 | Clc1ccc2c(N/N=C/c3cccc(Br)c3)ccnc2c1 | -4.87
87 | O=C(c1cc(COc2ccc(F)cc2Cl)on1)N1CCN(c2cnccn2)CC1 | -6.87
